These are yes or no findings as the source states them, for the method shown. Binding seen in cells or lysates may run through a third protein. Some entries that bind do so weakly or less than the wild type. For part of these data: Tags and fused reporters may be left off the sequences shown.
Key:
[1] = target: T1, T7-tagged Tab2(406–531) (human) (UniProt Q9NYJ8); experiment: co-IP; HEK293T cells transiently co-transfected; total lysates in RIPA buffer; 15 μg anti-NFkB-p65 or anti-epitope T7 antibody overnight at 4°C, protein A sepharose; immunoblot with anti-ERα, anti-Flag and anti-T7
T1 sequence: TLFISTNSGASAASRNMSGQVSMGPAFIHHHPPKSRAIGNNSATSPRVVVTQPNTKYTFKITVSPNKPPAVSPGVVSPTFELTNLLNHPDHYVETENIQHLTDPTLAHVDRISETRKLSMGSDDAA

Sequences of proteins named here, by UniProt entry; tags and fusion partners are left off.
UniProt P10275: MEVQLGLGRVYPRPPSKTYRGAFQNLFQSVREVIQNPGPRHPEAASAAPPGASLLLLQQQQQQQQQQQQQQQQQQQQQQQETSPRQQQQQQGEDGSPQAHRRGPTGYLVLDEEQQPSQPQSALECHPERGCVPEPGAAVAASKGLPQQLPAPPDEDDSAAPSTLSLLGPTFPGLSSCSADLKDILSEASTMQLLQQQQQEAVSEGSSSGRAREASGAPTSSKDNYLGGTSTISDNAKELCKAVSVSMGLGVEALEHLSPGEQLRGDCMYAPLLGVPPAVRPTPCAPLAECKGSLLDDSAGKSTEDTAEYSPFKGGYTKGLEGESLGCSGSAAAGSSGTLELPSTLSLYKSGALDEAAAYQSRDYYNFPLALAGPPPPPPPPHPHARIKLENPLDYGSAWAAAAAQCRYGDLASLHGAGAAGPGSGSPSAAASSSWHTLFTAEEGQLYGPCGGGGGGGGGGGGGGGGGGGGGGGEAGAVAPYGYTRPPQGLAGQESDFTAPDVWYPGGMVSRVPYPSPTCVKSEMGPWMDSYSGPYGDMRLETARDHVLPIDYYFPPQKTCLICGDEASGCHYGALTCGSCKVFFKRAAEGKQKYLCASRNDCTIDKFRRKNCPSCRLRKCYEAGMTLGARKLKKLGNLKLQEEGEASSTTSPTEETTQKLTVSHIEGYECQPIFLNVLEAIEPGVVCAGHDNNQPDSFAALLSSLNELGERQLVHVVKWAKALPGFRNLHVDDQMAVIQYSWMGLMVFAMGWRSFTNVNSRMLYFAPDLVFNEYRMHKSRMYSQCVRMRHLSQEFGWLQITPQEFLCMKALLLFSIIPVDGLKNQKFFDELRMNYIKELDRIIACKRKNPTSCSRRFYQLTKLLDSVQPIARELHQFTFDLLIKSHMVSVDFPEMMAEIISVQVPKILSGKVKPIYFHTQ

MBP-1-350Tab2 (human) = target: T2, MBP-1-350Tab2 (human) (UniProt Q9NYJ8); experiment: pull-down; 10 μg MBP-Tab2 fusion incubated with ERα-overexpressing HEK293T cell lysate 1.5 h at 4°C in pull-down buffer (125 mM NaCl, 20 mM Tris/HCl pH 7.8, 10% glycerol, 0.1% NP-40, 0.5 mM DTT), amylose resin, immunoblot; only the target purified
T2 sequence: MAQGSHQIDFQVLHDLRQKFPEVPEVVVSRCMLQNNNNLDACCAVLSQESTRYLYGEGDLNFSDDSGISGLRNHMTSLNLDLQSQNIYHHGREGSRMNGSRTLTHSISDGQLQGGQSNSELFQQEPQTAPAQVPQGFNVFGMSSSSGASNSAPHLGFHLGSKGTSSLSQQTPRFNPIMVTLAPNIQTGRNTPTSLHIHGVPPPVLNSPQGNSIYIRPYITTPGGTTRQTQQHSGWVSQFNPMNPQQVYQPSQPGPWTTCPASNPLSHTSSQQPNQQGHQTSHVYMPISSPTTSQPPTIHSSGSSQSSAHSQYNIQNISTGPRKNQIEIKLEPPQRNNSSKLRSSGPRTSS

[2] = target: T3, MBP-Tab2 full-length (human) (UniProt Q9NYJ8); experiment: as above
T3 sequence: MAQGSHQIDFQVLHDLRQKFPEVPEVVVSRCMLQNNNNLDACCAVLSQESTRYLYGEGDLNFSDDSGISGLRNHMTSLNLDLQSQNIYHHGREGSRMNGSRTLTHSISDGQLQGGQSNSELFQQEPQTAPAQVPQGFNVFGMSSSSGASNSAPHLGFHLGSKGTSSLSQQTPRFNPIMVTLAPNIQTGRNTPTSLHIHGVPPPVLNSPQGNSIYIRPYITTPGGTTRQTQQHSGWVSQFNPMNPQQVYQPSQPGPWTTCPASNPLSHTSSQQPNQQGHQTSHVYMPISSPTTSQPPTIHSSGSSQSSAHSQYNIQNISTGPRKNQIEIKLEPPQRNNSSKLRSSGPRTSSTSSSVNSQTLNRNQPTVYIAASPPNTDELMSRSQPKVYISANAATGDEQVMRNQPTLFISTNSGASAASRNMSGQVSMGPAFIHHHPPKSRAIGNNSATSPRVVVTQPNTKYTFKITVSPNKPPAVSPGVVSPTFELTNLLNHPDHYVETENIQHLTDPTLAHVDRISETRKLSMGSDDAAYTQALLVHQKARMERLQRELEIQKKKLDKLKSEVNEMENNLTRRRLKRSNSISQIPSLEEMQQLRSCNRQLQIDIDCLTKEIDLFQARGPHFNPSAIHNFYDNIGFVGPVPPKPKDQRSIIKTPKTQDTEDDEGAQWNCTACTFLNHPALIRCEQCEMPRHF

[3] = target: T4, MBP-Tab2(406–531) (human) (UniProt Q9NYJ8); experiment: as above
T4 sequence: T1 sequence

[4] = target: T3, MBP-Tab2 full-length (human); experiment: pull-down; competition: 10 μg MBP-Tab2 fusion preincubated 1 h at 4°C with 5 μl in vitro translated Tab2(406–531), then ERα-overexpressing HEK293T cell lysate 1.5 h at 4°C, amylose resin, immunoblot; the pair that is blocked; only the target purified
[5] = target: T4, MBP-Tab2(406–531) (human); experiment: as above
[6] = target: ERα (overexpressed in HEK293T cells) (human) (UniProt P03372); experiment: pull-down; competition: 5 μl in vitro translated Tab2(406–531) as competitor of MBP-Tab2 fusions for ERα of HEK293T cell lysate, amylose resin, immunoblot
GST-ERα (1–45) (human) = GST-ERα (1–45) (human) (UniProt P03372); experiment: pull-down; 10 μg GST-ERα (1–45) or GST alone incubated with 5 μl in vitro translated Tab2(406–531) 2 h at 4°C in pull-down buffer, glutathione resin, immunoblot; only the target purified
[7] = target: p65-tagged ERα(1–60) (human) (UniProt P03372); experiment: co-IP; HEK293T cells transiently co-transfected; total lysates in RIPA buffer; 15 μg anti-NFkB-p65 or anti-epitope T7 antibody overnight at 4°C, protein A sepharose; immunoblot with anti-ERα, anti-Flag and anti-T7
Recombinant human ERα = target: T5, Recombinant human ERα (human, UniProt P03372 1-595); experiment: pull-down; competition screening: in vitro translated fragments of Tab2(406–531) as competitors of MBP-Tab2(406–531) for recombinant hERα (1 nM); only the target purified
T5 construct: recombinant human ERα, bought; also called recombinant hERα; source: bought: Life Technologies
T5 sequence (looked up): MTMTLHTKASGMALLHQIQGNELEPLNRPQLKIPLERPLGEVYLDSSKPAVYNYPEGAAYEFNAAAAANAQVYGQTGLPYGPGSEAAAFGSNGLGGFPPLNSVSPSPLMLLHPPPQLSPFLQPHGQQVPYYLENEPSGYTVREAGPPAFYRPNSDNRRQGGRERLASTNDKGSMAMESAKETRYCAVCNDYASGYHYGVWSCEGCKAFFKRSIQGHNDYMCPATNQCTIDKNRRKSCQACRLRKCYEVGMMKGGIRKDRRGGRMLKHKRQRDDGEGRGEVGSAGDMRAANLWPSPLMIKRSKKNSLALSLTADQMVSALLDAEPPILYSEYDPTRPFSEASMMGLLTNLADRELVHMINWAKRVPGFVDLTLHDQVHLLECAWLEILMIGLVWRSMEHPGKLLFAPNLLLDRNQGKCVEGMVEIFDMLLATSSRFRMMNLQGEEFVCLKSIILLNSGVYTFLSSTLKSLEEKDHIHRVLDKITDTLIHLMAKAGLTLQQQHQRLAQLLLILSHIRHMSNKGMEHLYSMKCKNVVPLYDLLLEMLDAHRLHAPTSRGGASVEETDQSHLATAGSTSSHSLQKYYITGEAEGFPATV

## Flag-tagged full-length AR (from UniProt P10275 1-920)
[1]
  binding: binds

## Flag-tagged full-length ERα (from UniProt P03372 1-595)
[1]
  binding: binds

## ERα (overexpressed in HEK293T cells) (from UniProt P03372 1-595)
MBP-1-350Tab2 (human)
  binding: no binding
[2]
  binding: binds
[3]
  binding: binds
[4]
  binding: binds
[5]
  binding: binds

## p65-tagged ERα(1–60) (from UniProt P03372 1-60) (domain or fragment)
[1]
  binding: binds

B1: in vitro transcribed and translated Tab2(406–531) (domain or fragment, UniProt Q9NYJ8 406-531)
chain: T1 sequence
[6]
  binding: binds
GST-ERα (1–45) (human)
  binding: binds

B2: T7-tagged Tab2(406–531) (domain or fragment, UniProt Q9NYJ8 406-531)
chain: T1 sequence
[7]
  binding: binds

## NKPPAVSPGVVSPTFELTNLLNHPDHYVETENIQ (domain or fragment, UniProt Q9NYJ8 471-504) [Fragment 4 of Tab2(406–531)]
Recombinant human ERα
  binding: binds

Reference: article PMC5167418, “A Novel Functional Domain of Tab2 Involved in the Interaction with Estrogen Receptor Alpha in Breast Cancer Cells” (PLoS ONE, 2016)
